This is one part of the list.
Tested on: T1, C. trachomatis L2/434/Bu expressing GFP (CTL2-GFP)
T1 construct: L2/434/Bu GFP intracellular growth in HeLa cells
Parameters: species or system HeLa; C. trachomatis total inclusion area by high-content imaging, normalised to DMSO
Details: total inclusion area; 28.5 h, 10 µM; inhibitor
Summary of the method: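 High-content images of fixed, Hoechst-stained infected cultures supply inclusion area and count (growth) plus nuclei number (viability), complementing bulk GFP/resorufin fluorescence. MIC determination is unchanged from the primary assay.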

SMILES	% of control remaining
O=C(Nc1ccc(Br)cc1C(=O)O)c1cccs1 [CBK066822]	131.618
N#CC(CCCN1CCN(c2ccccc2)CC1)(c1ccccc1)c1ccccc1 [CBK002243C]	46.2994
O=C(O)c1cc(C(=O)O)n(Cc2ccc(Cl)cc2Cl)n1 [CBK268283]	78.5623
CN1CCN(S(=O)(=O)c2ccc3oc(=O)ccc3c2)CC1 [CBK062431]	55.2677
O=C(CC(CN1CCN(c2cccc(Cl)c2)CC1)C(=O)O)NCc1ccccc1 (stereo not shown) [CBK286787]	93.1754
Cn1c(N)c(C(=O)NCC2CCCO2)c2nc3ccccc3nc21 (stereo not shown) [CBK269342]	108.456
c1cncc(-c2nnc([C@H]3CCN(C4CCOCC4)C3)o2)c1 [CBK289398]	125.133
COc1ccc(C(C)(C)C)cc1NC(=O)c1ccncc1 [CBK288248]	113.397
CCN(CC)C(=O)Cn1ncc2c3sc(C)cc3n(C)c2c1=O [CBK284156]	88.2676
COc1cccc(CNC(=O)C2CCCN(c3nc4c(-c5ccccc5)csc4c(=O)[nH]3)C2)c1 (stereo not shown) [CBK215463]	124.795
Cn1ccc(C2CCCCCN2S(=O)(=O)c2ccc(F)cc2)n1 (stereo not shown) [CBK284671]	88.3985
CC(C)C(NS(=O)(=O)c1ccc2ccccc2c1)C(=O)O (stereo not shown) [CBK286919]	98.6589
CC(Sc1nnc2[nH]c3ccccc3n12)C(=O)O (stereo not shown) [CBK265822]	125.784
Cc1csc(N2CCN(CC(O)COCc3ccco3)CC2)n1 (stereo not shown) [CBK306151]	106.696
Cc1ccc(S(=O)(=O)Nc2nnc(SCC(=O)Nc3ccc4c(c3)OCO4)s2)cc1 [CBK026675]	86.5904
CC(=O)ON=C1c2cc(S(=O)(=O)N(C)C)ccc2-c2ccc(S(=O)(=O)N(C)C)cc21 [CBK262807]	85.046
CN(C)C(=O)CCc1nc(-c2ccccn2)no1 [CBK297735]	95.1957
Cn1ccnc1C1(O)CC2CCC(C1)N2C(=O)Nc1ccc(F)cc1 (stereo not shown) [CBK284051]	92.7286
CNC(=O)C1(Cc2ccccc2-c2cccs2)CCN(C(=O)Cc2cccc(C)c2)CC1 [CBK285686]	106.181
Cc1cc2ncn(CC(=O)N3CCc4ccccc43)c2cc1C [CBK200270]	85.1379
Cc1nc2ccc(C(=O)c3ccccc3O)cn2c(=O)c1CCC(=O)O [CBK295618]	99.1667
CC1CCN(S(=O)(=O)c2cccc(C(=O)NNC(=O)c3cccc([N+](=O)[O-])c3)c2)CC1 [CBK266774]	91.1813
COc1ccccc1-c1nccnc1OCc1ccccc1 [CBK106817]	87.7311
Cc1nc[nH]c1CN(CCCn1ccnc1)Cc1ccccc1Cl [CBK282473]	124.888
O=C1Cc2ccccc2C2(CCN(C(=O)Nc3c(F)cccc3F)CC2)N1 [CBK047296]	104.69
Cc1nc(CC(=O)NC2CCCN(c3ccn(C)n3)C2=O)c(C)s1 (stereo not shown) [CBK304422]	95.1761
COc1ccc(OC)c(-n2c(C)cn3c4c(=O)[nH]c(=O)n(C)c4nc23)c1 [CBK141314]	28.0945

SMILES	% of control remaining
CNC(=O)NC(=O)C1CCN(CCc2ccccc2)CC1 [CBK034956]	73.2215
Cc1ccccc1OCC(O)CNC(=O)c1ccccc1C(=O)O (stereo not shown) [CBK264824]	107.712
O=C(Cc1ccccn1)N1CCc2ccccc2C1 [CBK200334]	102.708
Cc1nnc(SCc2cc(=O)[nH]c(N3CCN(c4ccccc4F)CC3)n2)s1 [CBK270017]	77.7463
O=C(Nc1cccc2ccccc12)C1CCCN1S(=O)(=O)c1ccc(Cl)cc1 (stereo not shown) [CBK138930]	98.3621
CN1CCN(c2ccc(NC(=S)NC(=O)c3cc(Br)ccc3Cl)cc2)CC1 [CBK266254C]	130.554
Nc1ccc2ccc(-c3ccccc3)nc2n1 [CBK061865]	90.1636
CC(=O)Nc1ccc(Oc2cc(C)nc(C3CCCNC3)c2)cc1 (stereo not shown) [CBK283443]	87.1694
CC1(C)CC(N(Cc2c[nH]cn2)Cc2ccccc2F)CC(C)(C)N1 [CBK282579]	87.2306
COc1ccc2nc(-c3ccc(F)c(NC(=O)c4ccccc4)c3)cn2n1 [CBK287827]	74.0479
Cc1ccc(S(=O)(=O)Nc2ccc(N3C[C@@H](C)N[C@@H](C)C3)c3ccccc23)cc1 [CBK001486C]	60.7762
Fc1ccc(CN2CCC(c3n[nH]c4ncccc34)CC2)cc1 [CBK284902]	95.6394
CC(C)NC1=NC(=O)C(CC(=O)Nc2ccccc2)S1 (stereo not shown) [CBK013880]	41.3012
O=C(CSCc1c(F)cccc1Cl)Nc1ccc(S(=O)(=O)N2CCCCC2)cc1 [CBK268034]	29.8837
COc1ccc2c(c1)C(=O)NC1(CCN(C(=O)c3ccc(OC)c(C)c3)CC1)O2 [CBK166291]	144.725
Cc1ccc2cc(CN(Cc3ccccc3)S(C)(=O)=O)c(O)nc2c1 [CBK269329]	112.266
Cc1ccc(-n2c(O)nnc2-c2ccc(Cl)c(Cl)c2)cc1 [CBK074887]	95.8324
Cc1ccn2c(-c3csc(Nc4ccc(S(N)(=O)=O)cc4)n3)c(C)nc2c1 [CBK263304B]	17.9311
O=C(Nc1ccncc1)c1ccc(S(=O)(=O)N2CCCC2)cc1 [CBK287786]	108.343
CCn1cc(CN2CCCCCC2c2cc(C)no2)c(C)n1 (stereo not shown) [CBK282159]	126.292
O=C(O)CCC(=O)Nc1ccc(S(=O)(=O)Nc2ccc(I)cc2)cc1 [CBK264866]	50.7589
O=C1c2ccc(-n3c(=O)c4cc5c(=O)n(-c6ccc7c(c6)C(=O)N(c6ccccc6)C7=O)c(=O)c5cc4c3=O)cc2C(=O)N1c1ccccc1 [CBK262136]	102.159
CC(NC1CCCN(c2ccc(C#N)cc2)C1=O)c1cncc(F)c1 (stereo not shown) [CBK306404]	93.3482
Oc1ccc(Nc2cc(-c3ccccc3)ncn2)cc1 [CBK291157]	95.8187
CN(C)CC(C)(C)CNC(=O)C1(c2ccccc2)CCCC1 [CBK149532]	98.355
Cc1nn(CC(=O)Nc2ccc3c(c2)nc(CN2CCCC2)n3C)c(=O)c2ccccc12 [CBK268465]	104.47
CC1(C)OC(N2CCN(Cc3ccccc3)CC2)=Nc2ccccc21 [CBK023933C]	95.5062

SMILES	% of control remaining
COc1ccccc1-c1nccnc1OCCn1cccc1 [CBK106820]	115.014
COCC(C)NS(=O)(=O)c1cc(C)ccc1OC (stereo not shown) [CBK270037]	88.6611
CS(=O)(=O)N1CCCC(C(=O)Nc2ccc(S(N)(=O)=O)cc2)C1 (stereo not shown) [CBK268490]	81.1898
CS(=O)(=O)N1CC2(CCN(Cc3ccc4nsnc4c3)CC2)c2ccccc21 [CBK136957]	97.6745
O=C(NCCc1cccs1)Nc1ccc2c(c1)C(F)(F)OC(F)(F)O2 [CBK045255]	85.8572
CC(C)c1ccc(C(C)NC(=O)c2ccc(=O)n(CC(=O)N3CCCCC3)c2)cc1 (stereo not shown) [CBK286084]	111.617
CN(C)C(=O)CN1N=C(C(C)(C)C)Cn2c(cc3sccc32)C1=O [CBK284116]	66.3131
CCN1CC2(CCC1=O)CCN(Cc1cccc(CCN)c1)CC2 [CBK306823]	37.5914
O=C(O)C(=N\Nc1ccccc1)/C(=N/Nc1ccccc1)C(=O)O [CBK278303N]	101.664
O=C(CSc1ccccc1)c1ccccc1 [CBK002224]	97.4879
CCOC(=O)c1[nH]c2ccccc2c1NS(=O)(=O)c1ccc(OC)c(OC)c1 [CBK047421]	96.9423
Cc1nnc(SCC(=O)N2c3ccccc3Sc3ccccc32)n1N [CBK265920]	82.8017
COc1ccc([N+](=O)[O-])cc1NC(=O)c1cc(-c2ccccc2Cl)nc2ccc(C)cc12 [CBK267764]	102.787
CCOC(=O)N1CCC(NC(=O)N(CCCN(C)C)Cc2ccc3c(c2)OCO3)CC1 [CBK159231]	76.1059
CC(C)(CN)CN(Cc1ccc(-c2ccccc2)cc1)C(=O)Nc1ccccc1C(C)(C)C [CBK002476C]	35.2652
COC(=O)c1ccc(NC(=O)CNc2ccccc2)cc1 [CBK268064]	106.282
c1ccc2c(c1)CCCN2CCc1c[nH]c2ccccc12 [CBK138330]	85.6092
Cc1noc(C)c1CC(=O)NC(C)CCc1ccc(F)cc1 (stereo not shown) [CBK281511]	88.5004
O=C(O)C(CC(=O)N1CCOCC1)NCc1ccccc1 (stereo not shown) [CBK267000]	115.582
O=S(=O)(Cc1ccc(Br)cc1)c1cc2c(N3CCNCC3)nccc2s1 [CBK045688C]	78.6158
O=C(c1ccco1)N1CCN(c2ncccn2)CC1 [CBK144524]	108.744
COc1ccc(-n2c3c(cc(C(=O)Nc4ccccc4Br)c2=O)C(=O)CCC3)cc1 [CBK293945]	121.82
CCn1cc(CN2CCCN(C(=O)c3cc(Cl)c[nH]3)CC2)cn1 [CBK306153]	50.9924
CC(=O)C1=C(O)C(=O)N(CCCO)C1c1cccc([N+](=O)[O-])c1 (stereo not shown) [CBK263753]	112.978
O=C(NCc1cccnc1)c1ccc(CSc2ccccc2)cc1 [CBK300544]	61.7691

— article PMC12040169 (PLOS Biology, 2025)
